Source: PubChem BioAssay AID624417 (National Center for Advancing Translational Sciences (NCATS), 2012)
Out of some 410,000 compounds screened, about 6,400 (1.6%) were called active. This list was built around the results that the source calls inconclusive (neither active nor inactive); the mix of calls is not that of the screen. The call rests on the fitted dose curve; in most records, active means well fitted inhibition curve with a large enough effect; inconclusive means small, poorly fitted or top-dose-only effect; inactive means no such curve, though single readings can be large or run the other way. No potency is given beside an inconclusive call; the fits are too rough.

What follows are compounds tested against Glucagon-like peptide 1 receptor (Homo sapiens) (UniProt P43220) (assay: qHTS of GLP-1 Receptor Inverse Agonists (Inhibition Mode)). Conditions: HEK293 GLP-1R CRE-luciferase, luminescence, 24 h, GLP-1R form is constitutively active; activity change, negative = inhibition: at 38.3 µM (top of the series) unless noted.
Outline: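 Constitutively active GLP-1R drives a cAMP-responsive luciferase in stably transfected HEK293 cells; test compounds are added after overnight (12 h) attachment and left 24 hr, and signal loss in luminescence marks inhibition.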
Further: nearly all actives have a fitted effect of over 55% in size.
On the % scale 0 is the no-effect control and ±100 the full control effect; potency means the concentration at half of the fitted maximal effect; tags describe the fitted curve by direction and shape.

Sequence of UniProt P43220 (P43220 whole entry, looked up): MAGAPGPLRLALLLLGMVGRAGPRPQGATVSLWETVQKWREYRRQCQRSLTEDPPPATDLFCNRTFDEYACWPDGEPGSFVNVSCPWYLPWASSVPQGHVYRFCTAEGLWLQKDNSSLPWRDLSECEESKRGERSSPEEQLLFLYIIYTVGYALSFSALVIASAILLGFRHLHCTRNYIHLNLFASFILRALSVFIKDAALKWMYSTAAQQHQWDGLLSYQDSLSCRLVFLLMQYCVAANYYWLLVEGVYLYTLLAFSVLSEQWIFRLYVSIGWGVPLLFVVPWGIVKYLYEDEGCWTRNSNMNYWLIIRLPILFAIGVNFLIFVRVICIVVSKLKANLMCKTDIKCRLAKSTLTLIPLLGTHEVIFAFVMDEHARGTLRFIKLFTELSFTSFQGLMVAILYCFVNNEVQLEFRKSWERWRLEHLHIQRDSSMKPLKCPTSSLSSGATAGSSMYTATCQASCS

SMILES	Potency	activity change, negative = inhibition
CC(Oc1ccc(F)cc1)C(=O)Nc1cc(S(=O)(=O)N2CCOCC2)ccc1N1CCCCC1 (stereo unspecified)	inconclusive [inhibitor, single point]	
COc1ccc(C2CC(=O)N3CN(c4ccc(C)c(Cl)c4)CSC3=C2C#N)cc1 (stereo unspecified)	inactive	
C#Cc1ccc(CN2CCC(N3CCC(C(=O)NCc4ccccn4)CC3)CC2)cc1	inconclusive [inhibitor, full curve, poor fit]	
CC1(C(=O)NCC2CCOCC2)Cc2c(-c3cccc(C(N)=O)c3)ccnc2O1 (stereo unspecified)	inconclusive [inhibitor, partial curve]	
Cn1c(CN2CCCCC2)nc2cc(NS(=O)(=O)c3ccc(Cl)cc3)ccc21	inconclusive [inhibitor, partial curve, poor fit]	
COc1ccc(Cl)cc1NC(=O)CN(C)C(=O)Cc1ccc(-c2ccccc2)cc1	inconclusive [inhibitor, single point]	
O=S(=O)(c1cccs1)N1CCCc2cccc(O)c21	inconclusive [inhibitor, single point]	
Cc1cccc(C(=O)N/N=C/c2ccccn2)c1	inconclusive [inhibitor, single point]	
CCCCCNc1nc(NCCCO)c(C#N)c2c1CN(C)CC2	inconclusive [inhibitor, single point]	
CCCN(CCC)CCCNC(=O)CCNS(=O)(=O)c1ccc(Br)cc1	inconclusive [inhibitor, single point]	
CCN(CC(=O)Nc1ccc2c(c1)OCCO2)C(=O)COc1ccc(C)cc1	inconclusive [inhibitor, partial curve]	
CCOC(=O)C1=C(C)NC(=S)NC1c1ccc(OC(=O)c2ccco2)cc1 (stereo unspecified)	inactive	
COc1ccc(/C=C(\C#N)C(=O)N2COCC2(C)C)cc1	inactive	
COc1ccccc1CNc1nc(NCc2ccccc2F)c2sccc2n1	inconclusive [inhibitor, single point]	
Cn1cc(/C=C/c2cc[n+](C)cc2)c2cc(Cl)ccc21	inconclusive [inhibitor, full curve, poor fit]	
Cc1ccc(S(=O)(=O)Nc2ccc(NC(=O)Nc3cccc(C(F)(F)F)c3)cc2)cc1	inconclusive [inhibitor, full curve, poor fit]	
Cc1ccccc1NS(=O)(=O)c1ccc(S(=O)(=O)N2CCCC2)cc1	inconclusive [inhibitor, single point]	
Cc1ccc(/C=C(\NC(=O)c2ccc(C)cc2)c2nc(=S)[nH][nH]2)cc1	inconclusive [inhibitor, single point]	
Cc1cc(C)n(CC(=O)NNC(=O)CCCOc2ccc(Cl)cc2C)n1	inconclusive [inhibitor, single point]	
CC(C)c1cc(C(F)(F)F)n2nc(C(=O)Nc3ccc4c(c3)OCO4)cc2n1	inconclusive [inhibitor, partial curve, poor fit]	
CC1(C(=O)NS(=O)(=O)c2ccc(Cl)cc2)CCN1C(=O)CCc1ccc(Cl)cc1Cl (stereo unspecified)	inactive	
CCN(CC)c1ccc(/C=N\NC(=O)c2cccc3cc[nH]c23)cc1	inconclusive [inhibitor, partial curve]	

SMILES	Potency	activity change, negative = inhibition
CCCN(Cc1ccccc1)C(=S)Nc1ccc(F)cc1	inconclusive [inhibitor, single point]	
COc1cc(C(=O)N(Cc2ccc(F)cc2)Cc2ccco2)cc(OC)c1OC	inactive	
CN1CCN(c2ccc(C(=O)c3ccc(Br)cc3)cc2[N+](=O)[O-])CC1	inconclusive [inhibitor, full curve, poor fit]	
O=C(Nc1nc(-c2ccccc2)cs1)c1ccccc1F	inactive	
Cc1ccc(N(CC(=O)Nc2cccc(Cl)c2C)S(=O)(=O)c2c(C)noc2C)cc1	inconclusive [inhibitor, single point]	
CCn1c(C)c(C)c2cc(C(=O)NCCCN3CCCCC3C)ccc21 (stereo unspecified)	inconclusive [inhibitor, single point]	
COc1ccc(Cn2c(=O)[nH]c3cc(C(=O)NCCC(C)C)ccc3c2=O)cc1	inactive	
O=C(N/N=C/c1c[nH]c2ccccc12)c1cccs1	inactive	
Cc1ccc(C)c(N2CCN(S(=O)(=O)c3c(C)noc3C)CC2)c1	inconclusive [inhibitor, single point]	
Cc1ccc(-c2ccc(=O)n(Cc3cccc(Br)c3)n2)cc1	inconclusive [inhibitor, single point]	
COc1ccc(Cl)cc1Nc1cc(C)nc2ccccc12	inconclusive [inhibitor, partial curve, poor fit]	
COc1cc(C=O)ccc1OS(=O)(=O)c1ccc(NC(C)=O)cc1	inactive	
Cc1cccc(C(C)C)c1NC(=O)CN(C)Cc1cccc(F)c1	inconclusive [inhibitor, partial curve, poor fit]	
Cc1ccc(C)c(OCCn2c(C3CC(=O)N(Cc4ccc(F)cc4)C3)nc3ccccc32)c1 (stereo unspecified)	inconclusive [inhibitor, single point]	
COc1cccc(CNc2nc(NC(C)C)nc3ccsc23)c1	inconclusive [inhibitor, partial curve, poor fit]	
CCN1CCN(C(=O)c2ccc3c(c2)N(Cc2cccc(Cl)c2)C(=O)c2ccccc2S3=O)CC1 (stereo unspecified)	inactive	
CC(C)(CO)Nc1nc(Cl)nc(NC2CCCCC2)n1	inactive	
c1ccc(COc2ccc(OCCN3CCCC3)cc2)cc1	inconclusive [inhibitor, partial curve, poor fit]	
Cc1cc(C)c(NC(=O)CSc2nc3ccccc3c3nc(CCn4cncc4C)nn23)c(C)c1	inactive	
O=C(N/N=C/c1c[nH]c2ccc(Br)cc12)c1ccc2c(c1)OCO2		inactive: -19.5% [at 7.66 µM]
Oc1ccc(/C=N/N2CCN(C3c4ccccc4-c4ccccc43)CC2)cc1	inconclusive [inhibitor, single point]	
COc1ccccc1Nc1nc(C)cc(C)n1	inactive	

SMILES	Potency	activity change, negative = inhibition
O=S(=O)(c1ccc(Cl)cc1)c1nc(-c2ccccc2Br)oc1NCc1ccccc1	inconclusive [inhibitor, partial curve, poor fit]	
COCCNC(=S)N1CCC(c2nc(-c3ccc(F)cc3)no2)CC1	inconclusive [inhibitor, single point]	
Cc1ccccc1CNC(=O)c1nn(-c2ccccc2F)nc1CO	inactive	
Cc1ccc(S(=O)(=O)Cn2nnnc2C(CC(C)C)N2CCN(C)CC2)cc1 (stereo unspecified)	inconclusive [inhibitor, full curve, poor fit]	
COc1cccc2c1Oc1ncccc1N(C(=O)CCC(=O)NCCC(C)C)C2	inactive	
CCn1nc(-c2ccccc2)c(-c2ccccc2)c(C(=O)Nc2ccc(S(N)(=O)=O)cc2)c1=O	inconclusive [inhibitor, partial curve, poor fit]	
COc1ccccc1C(=O)Nc1ccc2c(c1)CCCN2C(=O)c1ccccc1	inconclusive [inhibitor, single point]	
Cc1ccc(S(=O)(=O)N2CCN(c3ccccc3)CC2)c(C)c1	inconclusive [inhibitor, single point]	
O=C(NCCCN1CCc2ccccc2C1)C1CCN(c2nnc(-n3cccc3)s2)CC1	inconclusive [inhibitor, single point]	
O=c1c2sccc2n(Cc2cc(=O)n3ccccc3n2)c(=O)n1-c1cc(F)ccc1F	inactive	
CN1c2ccc([N+](=O)[O-])cc2C(C)(C)C12C=Cc1cc(C(=O)O)ccc1O2 (stereo unspecified)	inactive	
Cc1cccc(C(=O)NC2CC3CCCC(C2)N3C(=O)Nc2ccccc2)c1 (stereo unspecified)	inconclusive [inhibitor, single point]	
NC(=O)[C@@H]1CC2(CC(c3cccc(NC(=O)CC(c4ccccc4)c4ccccc4)c3)=NO2)CN1C(=O)c1ccc(Cl)cc1 (stereo partly specified)	inconclusive [inhibitor, partial curve, poor fit]	
Cc1csc(NC(=O)c2nc3nc(C)cc(C)n3n2)n1	inconclusive [inhibitor, single point]	
CCc1ccc(S(=O)(=O)Nc2ccc(O)c3c(=O)cc(-c4ccccc4Cl)oc23)cc1	inconclusive [inhibitor, single point]	
COC(=O)c1c(SC)nc2ccccc2c1OCc1ccc(Br)cc1	inconclusive [inhibitor, single point]	
COc1ccc(N(CC(=O)Nc2ccc(C)c(C)c2)S(=O)(=O)c2c(C)noc2C)cc1	inconclusive [inhibitor, single point]	
CCc1cc(-c2n[nH]c(C)c2-c2nc(C)cs2)c(O)cc1OC		inactive: -16.8% [at 7.66 µM]
CC(C)NC(=O)NC(=O)COC(=O)c1ccccc1O	inactive	
COc1cc(OC)cc(C(=O)Nc2cc(-c3nc4ccccc4[nH]3)ccc2C)c1	inconclusive [inhibitor, single point]	
COc1ccc2ccn(S(=O)(=O)c3ccccc3)c2c1	inconclusive [inhibitor, single point]	
O=C1/C(=C/c2ccccn2)SC(=S)N1c1cccc(O)c1	inconclusive [inhibitor, partial curve, poor fit]	
